The source gives no read counts; variants with many changes may rest on few reads.
B1: LINE1-mini (parent)
chain: GGCAGAGCUCAACACAGCGUGGCAAAGUGGCUGUGGCUAGACUGCC

Variants of: B1
Assay: self-cleavage, relative activity (ratio to wild type); higher = more cleavage; in vitro, sequencing; the parent is a self-cleaving ribozyme

Variant	self-cleavage
GGCAAAGCCCUACACAGCGUGGCAAAGUGGCUGUGGCUAGAGUGCU [G5A U9C A11U C42G C46U]	0.01
GGCAGAGCUCACCACAGCGUGGCAAAUUGGCUGUGGCUAGAGUGCC [A12C G27U C42G]	0.03
GGCUGCGCUAAACACAGCGCGGCAAAGGGGCUGUGGCUAGACUGCC [A4U A6C C10A U20C U28G]	0.01
UGCCGAGCUCAACACAGCGUUGCAAAGUGGCUUUGGCUAGACUGCC [G1U A4C G21U G33U]	0.04
GUCAGAACUCAAUACAGCGUGGCAAAGUGGCUGUGGCUAGACUGCA [G2U G7A C13U C46A]	0.03
GGAACAGCUCAACACAGCGUGGCAAAGUGGCUCUAGCGAGACUGCC [C3A G5C G33C G35A U38G]	0.21
GGCAGAGUUCAACAAAGCGUGGCAAAGGGGCUGUGGCUAGACUGCC [C8U C15A U28G]	0.44
GGAAGAGCUCAACAUAGCUUGGCAAAGUGGCUGUGGCUAGACUGCC [C3A C15U G19U]	0.18
GGCAGAGCUCAAAACAGCGUGGCAAAGUGGCUGUGGUUUGACUGCC [C13A C37U A39U]	0.01
GGCAGAGCUCGACACAGCGUGGCAAAGUUGCUGUGGCUAGACCGCC [A11G G29U U43C]	0
GGCAGGGCUCAACACAGCGUGGCAAAUUGGCUGUGGCUACACUGCC [A6G G27U G40C]	0.16
GGCAUAGCUAAACACAGCGUGGCAAGGUAGCUGUGGCUAGACUGCC [G5U C10A A26G G29A]	0.01
CGCAGAGCUCAACACAGUGUGGCAAAGUGGCUGUGGCUAGACUGGC [G1C C18U C45G]	0.02
AGCAGAGCUUAACACAGCGUGGCAAAGUGGCUCUGGGUAGACUGCC [G1A C10U G33C C37G]	0.04
GGAAGAGCUCAAAACAGCGUGGCAAACUGGCUGUGGUUAGAGUGCC [C3A C13A G27C C37U C42G]	0.73
GGCAGAGUUCAACACACCGUCGCAAAGUGGCUGUGGCUAGACUGCC [C8U G17C G21C]	0.32
GGCAGAGCUCAACACAGCGAGGCAAAGGGGAUGUGGCUAGACUGCC [U20A U28G C31A]	0.55
GGCAGAGCUCAACACAGCUUGGCAAAGUGGCUUUGGCCGGACUGCC [G19U G33U U38C A39G]	0.02
GGCAGAGCCCACCAGAGCGUGGCAAAGUGGCUGUGGCUAGACUGCC [U9C A12C C15G]	0

Variant	self-cleavage
GGCAGAGCGCAAUACAGCGUGGCAAAGUGGCGGUGGCUAGACUGCC [U9G C13U U32G]	0.01
GGCAGAGCUCAAUACCGCGUGGCAUAGUGACUUUGGCUAGACUGCU [C13U A16C A25U G30A G33U C46U]	0.04
ACCAGAGCUCAACACAGCGAGGCAAAGUGGCUGUGGCUAGAAUGCC [G1A G2C U20A C42A]	0.01
GGCAGAUCUCAACACUGCGUGGCAAAGUGGCUGUGGGUAGACUGCC [G7U A16U C37G]	0.31
GGCAGAGGACAAUCCAGCGAGGCAAAGUGGCUGUGGCUAGACUGCC [C8G U9A C13U A14C U20A]	0.02
GGCAGAGCUCAACACAGCGUGGCAGAGUGGCUGUGGCUAGACAUCC [A25G U43A G44U]	0.22
GGCAGAGCUCAACUCAGCGUGGCAAAGGGGCUGUGGUUGGACUGCC [A14U U28G C37U A39G]	0.01
GGCAGAGCUCAGCACAGCGUGGUAAAGUGGCUGUGUCUAGACUGCC [A12G C23U G36U]	0
GGCAGAGCUCAACACAGCGUGGCAAAGUGGCAGUGGCUGGACUGCA [U32A A39G C46A]	0.02
GGCAGAGCUCUCCACAGCGUGGUAAAGUGGCUGUGGCUAGACUGCC [A11U A12C C23U]	0.01
GGCAGAGCUGAACACAGCAUGGCAAAGUGGCUGUGGCUAGAAUUGC [C10G G19A C42A G44U C45G]	0.05
GGCACAGUUCAACACAGCGUGGCAAAGUGGCUGUAGGUAGACUGCC [G5C C8U G35A C37G]	0.09
GUAAGAGCACAACACAGCUUUGCAAAGUGGCUGAGGCUAGACUGCC [G2U C3A U9A G19U G21U U34A]	0.69
GGCAGAGCUCAACACAGUGUGUCAACGUGGUUCUGGCUAGACCGCC [C18U G22U A26C C31U G33C U43C]	0.01
GGCAGAGCUCAACACACCGAGGCAAAGUGACUGGGGCUAGACUGCC [G17C U20A G30A U34G]	0.01
GGAACAGCUCAACACAGCGUGGUAAAGUGGCUGUGUCUAGACUGCC [C3A G5C C23U G36U]	0.15
GGCAGAGCGCAACACAGCUGGGCAAAGUGGCUGUUGCUAGACUGCC [U9G G19U U20G G35U]	0.06
GGCAGAGCUCAACACAGCGUGACAGAGUGGCUGUGGAUAGACUGCC [G22A A25G C37A]	0.02
GGCAGAGCUCAACACAGCGUGGAAAAGUGGCUGUUGCUGGACUGCC [C23A G35U A39G]	0

Variant	self-cleavage
GGCAGAGCUCAAUCCAGCGUGGCAAUGUGGCUGUGGCUAGACUGCC [C13U A14C A26U]	0.01
GGCAGAGCUCAUCACAGCGUGGCAGAGUGACUGUGGCUAGACUGCC [A12U A25G G30A]	0.16
GACAGAGCUCAACACAGCGUGGCAAAGUGGCUGUGACUCGACUGCC [G2A G36A A39C]	1.29
GGCAGACCUCAACACAGCGUGGCAACGUGGCUGUUUCUAGAUUGCC [G7C A26C G35U G36U C42U]	1.63
GGCAGAGCUUAAUACAGCGUGGCAAAGUGGCUUUGGCUAGACUGCC [C10U C13U G33U]	0.06
GGCACAGCUCAACACAUCGUGUAAAAGUGGCUGUGGCUAGACACCC [G5C G17U G22U C23A U43A G44C]	0.04
GGCAGAGCGCAACACUGCGUGGCAAAGUGGCUGUGGAUAGACUGCC [U9G A16U C37A]	0.05
GGUAGAGCUCAACACUGCGUGGCAAAGUGGCUUUGGCUAGACUGCC [C3U A16U G33U]	0.08
AGCAGAGCUCAACACAGCGUGGCAAAGAGGCUGUGGCUCGACUGCC [G1A U28A A39C]	0.06
GGCAGAGCUCAACACAGCGUGGCAUAGUGGCUCUGGCUAGACUUCC [A25U G33C G44U]	0.02
GGCAGAGCUCAACACAGCGGGGCAAAGUGGUUGUGGGUAGACGGCC [U20G C31U C37G U43G]	0
GGCUGAGCUCAACUCAGCCUGGCAAAGUGGCUGUGGCUAGAAUGCC [A4U A14U G19C C42A]	0.09
GGCAAAGCUAAAGACAGCGUAGCAAAGUGACUGUGGCUAGACUGCC [G5A C10A C13G G21A G30A]	0.03
GGCAGAGCUCAACACAGCGUGGCAAAGUAGCUGUGCCUAGGCUGCC [G29A G36C A41G]	0.06
GGCAUAGCUCUACACAGCGUGGCCAAGUGACUGUGGCUAGACUGCC [G5U A11U A24C G30A]	0.02
GGUAAAGCUCAACAUAACGUGGCAAAGUGGCUGUGGCUAGACUGCC [C3U G5A C15U G17A]	0.09
GGCAGAGCUCAACACAGCGUGUCAUAGUGGCUGUGGCUAGAUUGCC [G22U A25U C42U]	3
GGAAGAGCUCAACACAGCGUGGCAAACUGUCUGUGGCUAGACUGCC [C3A G27C G30U]	0.35

— the RNAGym collection of RNA variant scans (doi:10.7554/elife.90254)
